# Out of some 380,000 compounds screened, about 4,000 (1.1%) were called active. The shares of active, inactive and inconclusive entries below differ from those in the screen. Calls come from the whole dose curve; as a rule, active = well fitted activation curve with a large enough effect; inconclusive = small, poorly fitted or top-dose-only effect; inactive = no such curve, though single readings can be large or run the other way. Potencies beside an inconclusive call are fits to weak or partial responses and may not hold up.
# Experiment: qHTS Assay to Identify Small Molecule Activators of BRCA1 Expression; note: nearly all actives have a fitted effect of over 80% in size
# Conditions: MCF7-BRCA1-FFLuc reporter, luminescence, 48 h; activation: at 46.1 µM (top of the series), scaled: vehicle 0%, 10 µM genistein 100% unless noted
# In short: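 Quantitative HTS in MCF7 cells stably reporting BRCA1 expression via firefly luciferase. Compound treatment lasts 48 h at 37 °C in phenol-red free MEM. Activation is expressed relative to genistein at 10 microM and DMSO.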
# Potency is the fitted concentration of half-maximal effect; tags give direction and shape of the fitted curve.
row,Compound,Potency
1,COc1ccc(C(=O)c2coc3ccc(OC(C)=O)cc23)cc1,"inconclusive: 3.16 µM [activator, partial curve, poor fit]"
2,COc1cccc(CNc2ncc(Br)cc2Br)c1O,"inconclusive: 6.31 µM [activator, partial curve, poor fit]"
3,COc1ccc(NC(=S)Nc2ccccn2)c(OC)c1,active: 5.62 µM
4,COc1ccc2c(c1)c1c(c(=O)n(-c3ccccc3C)c(=O)n1CC(=O)N1CCCC1)n2C,inactive
5,Cc1cc2cc(CCNC(=O)c3cccs3)c(=O)[nH]c2cc1C,"inconclusive: 35.5 µM [activator, single point]"
6,COc1ccccc1NC(=S)N(Cc1ccco1)Cc1cc2ccc(C)c(C)c2[nH]c1=O,inactive
7,CC(C)c1ccc(C(=O)CN2C(=O)NC3(CCc4ccccc43)C2=O)cc1 (stereo not drawn),inactive
8,C=CCn1c2ccccc2c(=O)c2cc(C#CC3(O)CCCCC3)ccc21,"inconclusive: 1.78 µM [activator, full curve, poor fit]"
9,CC1CCc2c(sc(/N=C/N(C)C)c2C#N)C1 (stereo not drawn),active: 12.6 µM
10,Cc1cccc(NC(=S)NNC(=O)c2ccc3c(c2)OCO3)c1,"inconclusive: 31.6 µM [activator, single point]"
11,COc1cc(N(C)C)ccc1C=c1c2ccccc2n2c1cc(-c1ccccc1)[n+]2C,inactive
12,O=C(CSC1=Nc2ccccc2N=C(c2ccc(F)cc2)C1)NCc1ccccc1Cl,inactive
13,COc1ccc(-c2cnc3ccccc3n2)cc1NC(=O)CNC(=O)c1ccccc1,"inconclusive: 35.5 µM [activator, single point]"
14,CC(=O)N1c2ccc(C)cc2Sc2c1ccc1ccccc21,inactive
15,CCOc1ccccc1C(=O)N(Cc1cc(OC)c(OC)c(OC)c1)c1ccccn1,inactive
16,O=C1CCCCC1C(=O)c1cn(-c2ccc(Cl)c(Cl)c2)nn1 (stereo not drawn),"inconclusive: 14.1 µM [activator, partial curve, poor fit]"
17,COC(=O)c1ccc(-c2ccc(Cl)cc2)nc1C,active: 2 µM
18,Cc1ccc(OCCOc2ccc(Br)cc2)c([N+](=O)[O-])n1,active: 3.16 µM
19,COC(=O)c1ccc(OCC(=O)c2ccc(C)c(C)c2)cc1,"inconclusive: 3.16 µM [activator, full curve, poor fit]"
20,Cc1ccsc1C(=O)OCC(=O)Nc1sccc1C(N)=O,"inconclusive: 35.5 µM [activator, single point]"
21,O=C(O)Cn1cc(C(=S)N2CCCCC2)c2ccccc21,inactive
22,Cc1cccc(NC(=O)c2ccccn2)c1C,"inconclusive: 10 µM [activator, partial curve, poor fit]"
23,Cc1nc2ccc(NC(=O)c3sccc3C)cc2s1,"inconclusive: 1.12 µM [activator, full curve, poor fit]"
24,c1ccc(-c2nnc(SCCC3OCCCO3)o2)cc1,"inconclusive: 2.82 µM [activator, full curve, poor fit]"

row,Compound,Potency
1,COc1cc(OC)c(C2CC(=O)N3CN(c4ccc(C)cc4)CSC3=C2C#N)cc1OC (stereo not drawn),active: 6.31 µM
2,O=C(c1ccco1)N1CCN(c2ccc(Cl)c(Cl)c2)CC1,active: 12.6 µM
3,Cc1ccc(NC(=O)C(=S)NCc2ccco2)cc1,active: 7.08 µM
4,Cc1cc(C(=O)Nc2ccc(N3CCCC3)c(Cl)c2)ccc1[N+](=O)[O-],active: 10 µM
5,COc1ccc(-n2c(-c3ccc(Br)cc3)c[n+]3c2CCC3)cc1,inactive
6,O=C(Nc1ccc(N2CCOCC2)c(Cl)c1)c1ccccc1F,"inconclusive: 1.78 µM [activator, full curve, poor fit]"
7,O=C(NCc1ccc2c(c1)OCO2)Nc1cccc(Cl)c1,"inconclusive: 12.6 µM [activator, partial curve, poor fit]"
8,O=C(Nc1ccccc1O)c1cc2cc(Br)ccc2oc1=O,"inconclusive: 2 µM [activator, full curve, poor fit]"
9,Cc1ccc(CNC(=O)NC2CCCCC2)cc1,active: 10 µM
10,CCCCn1c(N)c(N(C)C(=O)c2ccc(Br)o2)c(=O)[nH]c1=O,inactive
11,COc1ccc(OC)c(C(=O)Nc2ccc3[nH]ccc3c2)c1,"inconclusive: 1.58 µM [activator, partial curve, poor fit]"
12,CC1CCN(c2oc(-c3ccc(F)cc3)nc2C#N)CC1,"inconclusive: 15.8 µM [activator, single point]"
13,S=C(NCCc1ccccc1)NC1CCCCCC1,"inconclusive: 2.51 µM [activator, full curve, poor fit]"
14,CSc1ccc(/C=N/NC(=O)c2sccc2C)cc1,"inconclusive: 1.41 µM [activator, full curve, poor fit]"
15,O=C(NCc1ccc(C(F)(F)F)cc1)c1ccc(-c2cccnc2)c2ccoc12,"inconclusive: 11.2 µM [activator, partial curve, poor fit]"
16,COc1ccc(-n2nc(C(=O)NCC(=O)N3CCN(c4ccccc4OC)CC3)c3ccccc3c2=O)c(OC)c1,"inconclusive: 8.91 µM [activator, partial curve, poor fit]"
17,C1=Nc2ccccc2CN1c1ccccc1,active: 7.08 µM
18,O=C(/C=C/c1ccccc1)Nc1ccc(CN2CCOCC2)cc1,"inconclusive: 12.6 µM [activator, partial curve, poor fit]"
19,CCOc1ccc(C(=O)Cn2cnc3ccccc3c2=O)cc1,"inconclusive: 11.2 µM [activator, partial curve, poor fit]"
20,Cn1cc(Cl)c(C(=O)Nc2nc3ccccc3s2)n1,inactive
21,CC1(c2nnc(-c3cccc(Cl)c3)o2)CC(c2ccc(F)cc2)=NO1 (stereo not drawn),active: 11.2 µM
22,CCC(=O)NC(=S)Nc1ccc(-c2nc3ccc(C)cc3s2)cc1,"inconclusive: 0.562 µM [activator, full curve, poor fit]"
23,O=C(Nc1nnc(C2CCCCC2)s1)c1ccco1,"inconclusive: 1.26 µM [activator, full curve, poor fit]"
24,C=CCn1c(=O)/c(=C/c2cc(OC)c(OC)c(OC)c2)s/c1=C(/C#N)c1nc2ccccc2n1C,inactive
